Data from PubChem BioAssay (NCATS).
The other results are listed elsewhere or left out. Shown are side measurements of this screen, not its main read-out; they come without a call. The list favours compounds with an active or inconclusive main result.

Test: qHTS Assay for Lipid Storage Modulators (AID 1519)
Details: Drosophila S3 cells, BODIPY lipid droplet/cell ratio, laser cytometry; measured here: cell count channel max response; cells loaded with oleic acid
Summary of the method: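 Cells seeded at 5,000 per well were treated with compounds over a concentration series and loaded with oleic acid (400 uM, as added). Lipid droplet fluorescence (488 nm excitation, 500-530 nm channel) was read by laser-scanning cytometry and normalized to 20 uM Triacsin C.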

| Compound | max response [%] |
| --- | --- |
| NCC1O[C@H](O[C@@H]2C(O)[C@H](O[C@H]3OC(CO)C(O)C(N)C3O)[C@@H](N)C[C@H]2N)[C@@H](N)CC1O (stereo not given in full) | 22.8 |
| COc1ccc(Oc2ncc3nc(C)c(=O)n(CCC#N)c3n2)cc1 | 24.2 |
| COc1ccc(NC(=O)N2CCCC3(CCN(C(=O)c4cccn4C)CC3)C2)cc1 | 19.7 |
| CS(=O)(=O)N1CCC2(CC1)CN(c1ccc(-c3ccccc3)cc1)C2 | 5.05 |
| COc1cc(S(C)=O)ccc1-c1nc2ncccc2[nH]1 (stereo not given) | 23 |
| Cc1nc2cnc(Oc3cccc(Cl)c3)nc2n(C2CC2)c1=O | 24 |
| N#CCCn1c(=O)c(-c2ccc(Cl)cc2)nc2cnc(N3CCNCC3)nc21 | 22 |
| C[C@H]1[C@H]2CC[C@H]3C4CC=C5C[C@@H](N(C)C)CC[C@]5(C)C4CC[C@]23CN1C (stereo not given in full) | 27.6 |
| Cc1cccc(CNc2ncncc2-c2cccc(NS(C)(=O)=O)c2)c1 | 19.6 |
| O=C(c1cnccn1)N1CCC2(CCCN(Cc3nccs3)C2)CC1 | 26.3 |
| FC(F)(F)c1ccccc1-c1cncnc1-n1ccnc1 | 23 |
| COc1ccc(C(=O)N2CCC3(CCCN(C)C3)CC2)cc1 | 24.1 |
| O=c1c(-c2ccc(O)cc2)coc2c(C3OC(CO)C(O)C(O)C3O)c(O)ccc12 (stereo not given) | 17 |
| O=c1c(CCc2ccccc2)nc2cncnc2n1Cc1ccccc1Cl | 23.6 |
| COc1ccccc1-c1nc(NC2CC2)c2ccccc2n1 | 12.6 |
| Cn1cc(-c2nc3cnc(N4CCOCC4)nc3n(CCC#N)c2=O)c2ccccc21 | 25.2 |
| O=C(Nc1cccc(F)c1)N1CCCC2(CCN(C(=O)c3ccco3)CC2)C1 | -2.2 |
| CCCCOc1ccc(C(=O)CCN2CCCCC2)cc1 | -22.9 |
| COc1cc(O)c(C(=O)/C=C/c2ccc(O)c(OC)c2)c(OC)c1 | 19.5 |
| COc1ccc(NC(=O)N2CC3(CCN(C(=O)c4ccncc4)CC3)C2)cc1 | 18.2 |

| Compound | max response [%] |
| --- | --- |
| CC(=O)OC1CC2C(C)(C)C(=O)CC[C@]2(C)C2CC[C@]3(C)C(=CC(=O)OC3c3ccoc3)[C@]12C (stereo not given in full) | 14.3 |
| COC(=O)N1CCC2(CC1)CCN(c1cccc(-c3ccccc3)c1)CC2 | 17.6 |
| COc1ccc(Oc2ncc3nc(-c4cccs4)c(=O)n(Cc4cccc(OC)c4)c3n2)cc1 | 51.8 |
| O=C(O)c1cc2cc(Cc3cccnc3)ccc2o1 | 61.6 |
| CC(=O)OCC1=C(C(=O)O)N2C(=O)C(NC(=O)CSc3ccncc3)[C@@H]2SC1 (stereo not given in full) | 17.4 |
| COCCn1c(=O)c(-c2ccccc2)nc2cnc(Oc3ccccc3)nc21 | 6.88 |
| COCCn1c(=O)c(-c2cc(F)cc(F)c2)nc2cnc(N(C)C)nc21 | 17.2 |
| c1cncc(-c2ccc3ncnc(NC4CCNCC4)c3c2)c1 | 25.8 |
| N#CCCn1c(=O)c(-c2ccc(F)cc2)nc2cnc(N3CCNCC3)nc21 | 25.3 |
| CCc1ccc(CCOc2ccc(CC3SC(=O)NC3=O)cc2)nc1 (stereo not given) | 25.6 |
| CC(=O)OC1CCC2(C)C(=CCC3C2CCC2(C)C3C[C@@H]3O[C@]32C(C)=O)C1 (stereo not given in full) | 22 |
| COCCn1c(=O)cnc2cnc(Oc3cccc(Cl)c3)nc21 | 27.8 |
| COC(=O)C1C(O)CC[C@@H]2CN3CCc4c([nH]c5ccccc45)C3C[C@@H]12 (stereo not given in full) | 22.2 |
| COc1ccc2[nH]cc(CCNc3ccnc(-c4ccccc4C(F)(F)F)n3)c2c1 | 6.02 |
| CCCCC1C(=O)N(c2ccccc2)N(c2ccc(O)cc2)C1=O (stereo not given) | 1.91 |
| NS(=O)(=O)c1cc2c(cc1Cl)NC(C(Cl)Cl)NS2(=O)=O (stereo not given) | 20.8 |
| COCC(=O)N1CCC2(CCCN(c3ccccn3)C2)CC1 | -3.7 |
| CC1CC[C@@]23CCC4(C)[C@@]5(C)CCC6C(C)(C)C(=O)CC[C@@]6(C)C5C=C[C@@]4(OC2=O)C3C1C (stereo not given in full) | 22.9 |
| COCCNc1ccnc(-c2c(C)noc2C)n1 | 21 |
| N#Cc1cccc(NC(=O)N2CC3(CCN(C(=O)c4cnccn4)CC3)C2)c1 | 27.6 |
